Some of the results follow. Cut-off read from the data, not from the text of the source: active = 3.2 or more and inactive = the rest. The signal is at background level for most entries.
B1: ASS1_Y83_S79P (peptide)
chain: QPSALYEDRYL
B2: ATRX_Y203 (peptide)
chain: KNCFKYYMSDD
B3: BCL6_Y157_G159S (peptide)
chain: QDIMAYRSREV
B4: BBS2_Y648_YF (peptide)
chain: RFMELYDLNRD
B5: ATM_Y2019_D2016G (peptide)
chain: EPGSLYGCGGG
B6: AVPR2_Y117_C112Y_YF (peptide)
chain: FRAVKYLQMVG
B7: AVPR2_Y124_M123K (peptide)
chain: QMVGKYASSYM
B8: AXL_Y115 (peptide)
chain: SDTGQYQCLVF
B9: BCR_Y751_D752E_YF (peptide)
chain: GKTQQYECKWF
B10: BEST1_Y227_S231R_YF (peptide)
chain: GHLFAYDWIRI
B11: ATP6V1B1_Y462_R465H (peptide)
chain: INQGPYENHSV
B12: BBS4_Y48_YF (peptide)
chain: FIRKDYEACKA
B13: ATP8B1_Y658_I661T (peptide)
chain: TLCLCYKETEE
B14: BCR_Y756_YF (peptide)
chain: FDCKWYIPLTD
B15: BCR_Y1089 (peptide)
chain: EEVGIYRVSGV
B16: ATRX_Y203_C200S (peptide)
chain: KNSFKYYMSDD
B17: BAD_Y110 (peptide)
chain: WAAQRYGRELR
B18: BBS2_Y644 (peptide)
chain: TMKSRYMELYD
B19: BCO2_Y294 (peptide)
chain: GMTRNYIIFIE

Each binder was assayed against SHP2 C-SH2 domain E139D (assay: enrichment score (SH2-bound / input frequency) (ratio); bacterial display of known human phosphotyrosine sites (pTyr-Var adds point mutants) read by sequencing; higher = stronger binding; tyrosines were phosphorylated by kinases first). Conditions: peptide library: pTyr-Var.
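Note: displayed peptides selected on beads carrying the immobilized SH2 domain, with library peptides lacking any tyrosine serving as negative controls.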

| Binder | enrichment score |
| --- | --- |
| B1 | inactive: 0.47 |
| B2 | inactive: 1.09 |
| B3 | inactive: 0.922 |
| B4 | inactive: 1.19 |
| B5 | inactive: 0.489 |
| B6 | inactive: 1.01 |
| B7 | inactive: 0.898 |
| B8 | inactive: 0.625 |
| B9 | inactive: 0.976 |
| B10 | inactive: 2.65 |
| B11 | inactive: 0.941 |
| B12 | inactive: 0.883 |
| B13 | inactive: 1.41 |
| B14 | inactive: 0.996 |
| B15 | inactive: 0.668 |
| B16 | inactive: 1 |
| B17 | inactive: 0.342 |
| B18 | inactive: 0.954 |
| B19 | inactive: 2.57 |

The binders below were run against SHP2 C-SH2 domain wild-type in the same assay as above. Conditions: peptide library: pTyr-Var.

| Binder | enrichment score |
| --- | --- |
| B1 | inactive: 0.604 |
| B2 | inactive: 1.29 |
| B3 | inactive: 0.383 |
| B4 | inactive: 1.12 |
| B5 | inactive: 0.584 |
| B6 | inactive: 1.34 |
| B7 | inactive: 0.899 |
| B8 | inactive: 0.86 |
| B9 | inactive: 1.02 |
| B10 | inactive: 2.33 |
| B11 | inactive: 0.887 |
| B12 | inactive: 0.914 |
| B13 | inactive: 1.68 |
| B14 | inactive: 1.46 |
| B15 | inactive: 0.721 |
| B16 | inactive: 0.883 |
| B17 | inactive: 0.389 |
| B18 | inactive: 0.748 |
| B19 | inactive: 2.16 |

Each binder was assayed against SHP2 N-SH2 domain L43F in the same assay as above. Conditions: peptide library: pTyr-Var.

| Binder | enrichment score |
| --- | --- |
| B1 | inactive: 1.34 |
| B2 | inactive: 1.08 |
| B3 | inactive: 0.68 |
| B4 | inactive: 0.743 |
| B5 | inactive: 0.54 |
| B6 | inactive: 1.23 |
| B7 | inactive: 0.796 |
| B8 | inactive: 0.617 |
| B9 | inactive: 0.932 |
| B10 | inactive: 2.57 |
| B11 | inactive: 1.09 |
| B12 | inactive: 0.873 |
| B13 | inactive: 1.85 |
| B14 | inactive: 0.901 |
| B15 | inactive: 0.815 |
| B16 | inactive: 0.694 |
| B17 | inactive: 0.246 |
| B18 | inactive: 1.27 |
| B19 | inactive: 2.55 |

What follows are binders tested against SHP2 N-SH2 domain T42A in the same assay as above. Conditions: peptide library: pTyr-Var.

| Binder | enrichment score |
| --- | --- |
| B1 | inactive: 0.612 |
| B2 | inactive: 1.16 |
| B3 | inactive: 0.427 |
| B4 | inactive: 0.934 |
| B5 | inactive: 0.465 |
| B6 | active: 3.26 |
| B7 | inactive: 0.619 |
| B8 | inactive: 0.616 |
| B9 | inactive: 0.858 |
| B10 | inactive: 2.19 |
| B11 | inactive: 0.763 |
| B12 | inactive: 0.691 |
| B13 | inactive: 1.07 |
| B14 | inactive: 1.06 |
| B15 | inactive: 0.686 |
| B16 | inactive: 0.624 |
| B17 | inactive: 0.226 |
| B18 | inactive: 2.47 |
| B19 | inactive: 1.98 |

What follows are binders tested against SHP2 N-SH2 domain T52S in the same assay as above. Conditions: peptide library: pTyr-Var.

| Binder | enrichment score |
| --- | --- |
| B1 | inactive: 0.557 |
| B2 | inactive: 0.926 |
| B3 | inactive: 0.542 |
| B4 | inactive: 1.51 |
| B5 | inactive: 0.523 |
| B6 | inactive: 1.09 |
| B7 | inactive: 0.906 |
| B8 | inactive: 0.516 |
| B9 | inactive: 0.893 |
| B10 | inactive: 2.47 |
| B11 | inactive: 0.852 |
| B12 | inactive: 0.75 |
| B13 | inactive: 1.54 |
| B14 | inactive: 0.967 |
| B15 | inactive: 0.684 |
| B16 | inactive: 0.668 |
| B17 | inactive: 0.293 |
| B18 | inactive: 1.1 |
| B19 | inactive: 2.56 |

Each binder was assayed against SHP2 N-SH2 domain wild-type in the same assay as above. Conditions: peptide library: pTyr-Var.

| Binder | enrichment score |
| --- | --- |
| B1 | inactive: 1.12 |
| B2 | inactive: 1.47 |
| B3 | inactive: 0.613 |
| B4 | inactive: 0.759 |
| B5 | inactive: 0.476 |
| B6 | inactive: 0.794 |
| B7 | inactive: 0.856 |
| B8 | inactive: 0.989 |
| B9 | inactive: 1.15 |
| B10 | inactive: 2.64 |
| B11 | inactive: 0.957 |
| B12 | inactive: 0.766 |
| B13 | inactive: 1.85 |
| B14 | inactive: 1.49 |
| B15 | inactive: 0.939 |
| B16 | inactive: 0.627 |
| B17 | inactive: 0.31 |
| B18 | inactive: 0.844 |
| B19 | inactive: 2.11 |

Reference: the supplement of paper PMC10369915
